From the supplement of paper PMC9046079
Structures can show the parent of a compound that is named as a salt. ± gives the standard deviation of the averaged measurements. The list shows a part of the results.
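Throughout, for cellular ATP (CellTiter-Glo 3D) relative to plate median: 2.5D pseudo-monolayer culture of ISC-enriched organoids partly embedded atop Matrigel, compound added on day 0 and again on day 3, per-plate LOESS correction before median fold change.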

These compounds were tested on murine small intestinal organoids (ENR+CD Paneth differentiation) (assay: cellular ATP (CellTiter-Glo 3D) relative to plate median (log10 fold change); higher = more viable cells). Conditions: 10 µM; 6 d.
`COc1ccc(C(=O)N2CCCC2=O)cc1` [Aniracetam] was tested, and the “cellular ATP (log10)” value was 0.019 ± 0.082. With `C[C@](O)(COc1ccc(C#N)cc1)C(=O)Nc1ccc(C#N)c(C(F)(F)F)c1` the “cellular ATP (log10)” value was -0.367 ± 0.29. In the case of `Cc1cc(SCc2sc(-c3ccc(C(F)(F)F)c(F)c3)nc2C)ccc1OCC(=O)O`, the “cellular ATP (log10)” value is reported as -0.451 ± 0.15. With `O=C(O)CNC(=O)c1c(O)c2ccccc2n(Cc2ccccc2)c1=O` the “cellular ATP (log10)” value was 0.000886 ± 0.052. In the case of `C[C@@H]1O[C@@H](O[C@H]2C[C@@H](O)[C@]3(CO)[C@H]4[C@H](O)C[C@]5(C)[C@@H](C6=CC(=O)OC6)CC[C@]5(O)[C@@H]4CC[C@]3(O)C2)[C@H](O)[C@H](O)[C@H]1O` [Ouabain], the “cellular ATP (log10)” value is reported as -0.288 ± 0.6. In the case of `CCc1c(C(=O)C(N)=O)c2c(OCC(=O)O)cccc2n1Cc1ccccc1`, the “cellular ATP (log10)” value is reported as 0.127 ± 0.15. In the case of `CCC(COC(=O)c1cc(OC)c(OC)c(OC)c1)(c1ccccc1)N(C)C` (configuration not stated) [Trimebutine], the “cellular ATP (log10)” value is reported as -0.407 ± 0.44. For `CN1CCc2cc3c(cc2C1C1OC(=O)c2c1ccc1c2OCO1)OCO3` (single isomer, unassigned; (+)) [(+)-Bicuculline], the “cellular ATP (log10)” value was -0.132 ± 0.15. In the case of `Fc1cc(F)c2c(c1)[C@H]1C=CC[C@H]1C(c1cccnc1)N2` (some centres not stated) [Golgicide A], the “cellular ATP (log10)” value is reported as -0.22 ± 0.51. `Cn1cc(C2=C(c3cn(C4CCN(Cc5ccccn5)CC4)c4ccccc34)C(=O)NC2=O)c2ccccc21` was tested, and the “cellular ATP (log10)” value was -0.0812 ± 0.057. In the case of `CCN(CC)C(=O)c1ccc(C2=CC3(CCNCC3)Oc3cccc(O)c32)cc1`, the “cellular ATP (log10)” value is reported as 0.194 ± 0.16. In the case of `Cc1sc2c(c1C)C(c1ccc(Cl)cc1)=N[C@@H](CC(=O)OC(C)(C)C)c1nnc(C)n1-2`, the “cellular ATP (log10)” value is reported as -0.844 ± 0.31. For `COc1cc(-n2c(=S)[nH]c3ccccc3c2=O)c(Cl)cc1Cl` [Mdivi-1], the “cellular ATP (log10)” value was -0.527 ± 0.087. `O=c1[nH]c2ccc(Cl)cc2c(N[C@@H]2CN3CCC2CC3)c1-c1nc2ccccc2[nH]1` was tested, and the “cellular ATP (log10)” value was -1.55 ± 0.68. `CCCN1CCO[C@@H]2c3cc(O)ccc3OC[C@H]21` was tested, and the “cellular ATP (log10)” value was 0.285 ± 0.17. In the case of `N[C@@H]1C[C@H]1c1ccccc1` [Tranylcypromine (2-PCPA) HCl], the “cellular ATP (log10)” value is reported as -0.69 ± 1. In the case of `CCOC(=O)c1cncn1[C@H](C)c1ccccc1` [Etomidate], the “cellular ATP (log10)” value is reported as 0.0392 ± 0.23. `CC[C@@H]1/C=C/C=C/C[C@H](C)[C@H](O)[C@](C)(O)C(=O)[C@H](C)[C@@H](O)[C@H](C)C(=O)[C@H](C)[C@@H](O)[C@H](C)/C=C/C(=O)O[C@H]2[C@@H](C)[C@@H](CC1)O[C@@]1(CC[C@@H](C)[C@@H](C[C@H](C)O)O1)[C@@H]2C` [Oligomycin A] was tested, and the “cellular ATP (log10)” value was -1.24 ± 0.7. With `Cc1ccc(-n2nccn2)c(C(=O)N2CCN(c3nc4cc(Cl)ccc4o3)CC[C@H]2C)c1` [Suvorexant (MK-4305)] the “cellular ATP (log10)” value was 0.208 ± 0.28. In the case of `CN1CCCCC1Cn1cc(C(=O)c2cc([N+](=O)[O-])ccc2I)c2ccccc21` (configuration not stated), the “cellular ATP (log10)” value is reported as -0.000732 ± 0.11. With `Cc1sc2c(c1C)C(c1ccc(Cl)cc1)=N[C@@H](CC(=O)Nc1ccc(O)cc1)c1nnc(C)n1-2` the “cellular ATP (log10)” value was -0.908 ± 0.27. For `O=C(O[C@H]1C[C@H]2CC[C@@H](C1)[N+]21CCCC1)C(O)(c1ccccc1)c1ccccc1` [Trospium chloride], the “cellular ATP (log10)” value was 0.135 ± 0.11. For `C=C1C[C@@H]2[C@H](CC[C@]3(C)C(=O)CC[C@@H]23)[C@@]2(C)C=CC(=O)C=C12` [Exemestane], the “cellular ATP (log10)” value was -0.167 ± 0.45. With `C[C@@]12N[C@@H](Cc3ccccc31)c1ccccc12` [(-)-MK 801 Maleate] the “cellular ATP (log10)” value was -0.936 ± 0.39. `O=[N+]([O-])/C=C/c1ccc2c(c1)OCO2` [MNS (3,4-Methylenedioxy-Œ≤-nitrostyrene, MDBN)] was tested, and the “cellular ATP (log10)” value was -0.197 ± 0.41. For `CC(=O)O[C@H]1C[C@@H]2CC[C@@H]3[C@H](CC[C@@]4(C)[C@H]3C[C@H]([N+]3(C)CCCCC3)[C@@H]4OC(C)=O)[C@@]2(C)C[C@@H]1[N+]1(C)CCCCC1` [Pancuronium dibromide], the “cellular ATP (log10)” value was 0.0621 ± 0.21. `CCOc1ccccc1-n1c(C(C)N2CCN(C(=O)COc3ccc(Cl)cc3)CC2)nc2ccccc2c1=O` (configuration not stated) [Erastin] was tested, and the “cellular ATP (log10)” value was 0.298 ± 0.45. In the case of `Cc1cc2c(C(C)C)c(O)c(O)c(C=O)c2c(O)c1-c1c(C)cc2c(C(C)C)c(O)c(O)c(C=O)c2c1O`, the “cellular ATP (log10)” value is reported as -0.0557 ± 0.073.

These compounds were tested on murine small intestinal organoids (ENR+CD Paneth differentiation) (assay: carbachol-stimulated secreted lysozyme activity relative to plate median (log10 fold change); higher = more Paneth cell lysozyme secretion). Conditions: 0.08 µM; 6 d; carbachol 10 µM.
With `O=C1CC[C@@]2(O)[C@H]3Cc4ccc(O)c5c4[C@@]2(CCN3CC2CC2)[C@H]1O5` [Naltrexone HCl] the “carbachol-stimulated secreted lysozyme activity (log10)” value was 0.0198 ± 0.084. `COc1ccc(C(=O)N2CCCC2=O)cc1` [Aniracetam] was tested, and the “carbachol-stimulated secreted lysozyme activity (log10)” value was 0.048 ± 0.021. With `C[C@](O)(COc1ccc(C#N)cc1)C(=O)Nc1ccc(C#N)c(C(F)(F)F)c1` the “carbachol-stimulated secreted lysozyme activity (log10)” value was 0.119 ± 0.11. For `Cc1cc(SCc2sc(-c3ccc(C(F)(F)F)c(F)c3)nc2C)ccc1OCC(=O)O`, the “carbachol-stimulated secreted lysozyme activity (log10)” value was 0.0977 ± 0.023. `O=C(O)CNC(=O)c1c(O)c2ccccc2n(Cc2ccccc2)c1=O` was tested, and the “carbachol-stimulated secreted lysozyme activity (log10)” value was 0.0413 ± 0.025. For `C[C@@H]1O[C@@H](O[C@H]2C[C@@H](O)[C@]3(CO)[C@H]4[C@H](O)C[C@]5(C)[C@@H](C6=CC(=O)OC6)CC[C@]5(O)[C@@H]4CC[C@]3(O)C2)[C@H](O)[C@H](O)[C@H]1O` [Ouabain], the “carbachol-stimulated secreted lysozyme activity (log10)” value was 0.0528 ± 0.035. In the case of `CCc1c(C(=O)C(N)=O)c2c(OCC(=O)O)cccc2n1Cc1ccccc1`, the “carbachol-stimulated secreted lysozyme activity (log10)” value is reported as 0.0181 ± 0.23. For `CCC(COC(=O)c1cc(OC)c(OC)c(OC)c1)(c1ccccc1)N(C)C` (configuration not stated) [Trimebutine], the “carbachol-stimulated secreted lysozyme activity (log10)” value was -0.212 ± 0.35. With `CN1CCc2cc3c(cc2C1C1OC(=O)c2c1ccc1c2OCO1)OCO3` (single isomer, unassigned; (+)) [(+)-Bicuculline] the “carbachol-stimulated secreted lysozyme activity (log10)” value was 0.0396 ± 0.045. `Fc1cc(F)c2c(c1)[C@H]1C=CC[C@H]1C(c1cccnc1)N2` (some centres not stated) [Golgicide A] was tested, and the “carbachol-stimulated secreted lysozyme activity (log10)” value was 0.158 ± 0.28. For `Cn1cc(C2=C(c3cn(C4CCN(Cc5ccccn5)CC4)c4ccccc34)C(=O)NC2=O)c2ccccc21`, the “carbachol-stimulated secreted lysozyme activity (log10)” value was 0.0932 ± 0.06. With `CCN(CC)C(=O)c1ccc(C2=CC3(CCNCC3)Oc3cccc(O)c32)cc1` the “carbachol-stimulated secreted lysozyme activity (log10)” value was 0.0838 ± 0.12. With `Cc1sc2c(c1C)C(c1ccc(Cl)cc1)=N[C@@H](CC(=O)OC(C)(C)C)c1nnc(C)n1-2` the “carbachol-stimulated secreted lysozyme activity (log10)” value was -0.412 ± 0.037. In the case of `COc1cc(-n2c(=S)[nH]c3ccccc3c2=O)c(Cl)cc1Cl` [Mdivi-1], the “carbachol-stimulated secreted lysozyme activity (log10)” value is reported as 0.0428 ± 0.016. For `O=c1[nH]c2ccc(Cl)cc2c(N[C@@H]2CN3CCC2CC3)c1-c1nc2ccccc2[nH]1`, the “carbachol-stimulated secreted lysozyme activity (log10)” value was -0.295 ± 0.15. With `CCCN1CCO[C@@H]2c3cc(O)ccc3OC[C@H]21` the “carbachol-stimulated secreted lysozyme activity (log10)” value was 0.0885 ± 0.0098. In the case of `N[C@@H]1C[C@H]1c1ccccc1` [Tranylcypromine (2-PCPA) HCl], the “carbachol-stimulated secreted lysozyme activity (log10)” value is reported as 0.0104 ± 0.19. `CCOC(=O)c1cncn1[C@H](C)c1ccccc1` [Etomidate] was tested, and the “carbachol-stimulated secreted lysozyme activity (log10)” value was 0.12 ± 0.18. In the case of `CC[C@@H]1/C=C/C=C/C[C@H](C)[C@H](O)[C@](C)(O)C(=O)[C@H](C)[C@@H](O)[C@H](C)C(=O)[C@H](C)[C@@H](O)[C@H](C)/C=C/C(=O)O[C@H]2[C@@H](C)[C@@H](CC1)O[C@@]1(CC[C@@H](C)[C@@H](C[C@H](C)O)O1)[C@@H]2C` [Oligomycin A], the “carbachol-stimulated secreted lysozyme activity (log10)” value is reported as -0.266 ± 0.18. With `Cc1ccc(-n2nccn2)c(C(=O)N2CCN(c3nc4cc(Cl)ccc4o3)CC[C@H]2C)c1` [Suvorexant (MK-4305)] the “carbachol-stimulated secreted lysozyme activity (log10)” value was 0.121 ± 0.13. With `CN1CCCCC1Cn1cc(C(=O)c2cc([N+](=O)[O-])ccc2I)c2ccccc21` (configuration not stated) the “carbachol-stimulated secreted lysozyme activity (log10)” value was 0.0442 ± 0.23. `Cc1sc2c(c1C)C(c1ccc(Cl)cc1)=N[C@@H](CC(=O)Nc1ccc(O)cc1)c1nnc(C)n1-2` was tested, and the “carbachol-stimulated secreted lysozyme activity (log10)” value was -0.366 ± 0.075. `O=C(O[C@H]1C[C@H]2CC[C@@H](C1)[N+]21CCCC1)C(O)(c1ccccc1)c1ccccc1` [Trospium chloride] was tested, and the “carbachol-stimulated secreted lysozyme activity (log10)” value was 0.0945 ± 0.017. In the case of `C=C1C[C@@H]2[C@H](CC[C@]3(C)C(=O)CC[C@@H]23)[C@@]2(C)C=CC(=O)C=C12` [Exemestane], the “carbachol-stimulated secreted lysozyme activity (log10)” value is reported as 0.143 ± 0.082. For `C[C@@]12N[C@@H](Cc3ccccc31)c1ccccc12` [(-)-MK 801 Maleate], the “carbachol-stimulated secreted lysozyme activity (log10)” value was 0.0174 ± 0.027. In the case of `O=[N+]([O-])/C=C/c1ccc2c(c1)OCO2` [MNS (3,4-Methylenedioxy-Œ≤-nitrostyrene, MDBN)], the “carbachol-stimulated secreted lysozyme activity (log10)” value is reported as 0.0344 ± 0.069. `CC(=O)O[C@H]1C[C@@H]2CC[C@@H]3[C@H](CC[C@@]4(C)[C@H]3C[C@H]([N+]3(C)CCCCC3)[C@@H]4OC(C)=O)[C@@]2(C)C[C@@H]1[N+]1(C)CCCCC1` [Pancuronium dibromide] was tested, and the “carbachol-stimulated secreted lysozyme activity (log10)” value was 0.211 ± 0.23. With `CCOc1ccccc1-n1c(C(C)N2CCN(C(=O)COc3ccc(Cl)cc3)CC2)nc2ccccc2c1=O` (configuration not stated) [Erastin] the “carbachol-stimulated secreted lysozyme activity (log10)” value was 0.14 ± 0.1. With `Cc1cc2c(C(C)C)c(O)c(O)c(C=O)c2c(O)c1-c1c(C)cc2c(C(C)C)c(O)c(O)c(C=O)c2c1O` the “carbachol-stimulated secreted lysozyme activity (log10)” value was 0.0872 ± 0.12.
